From the supplement of paper PMC9446081
Screen size: about 39,000 compounds; about 220 (0.56%) showed activity. The list shows a part of the results.

test system: Escherichia coli K-12 BW25113; assay: relative growth (OD600 normalised to plate interquartile mean) (fraction); higher = less growth inhibition, active = 0.2 or less; details: 50 µM; LB; incubation time: overnight (16-24 h)
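Note: static incubation at 37 °C against the wild-type strain, values averaged over two biological replicates.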

Row | Compound | relative growth
1 | CC(C)NC(=O)Nc1ccc2c(c1)C(=O)N([C@@H](C)CO)C[C@@H](C)[C@H](CN(C)C(=O)C1CCCCC1)OCCCC[C@@H](C)O2 | inactive: 0.995
2 | CC(C)NC(=O)Nc1ccc2c(c1)C(=O)N([C@H](C)CO)C[C@@H](C)[C@@H](CN(C)S(=O)(=O)c1ccc(F)cc1)O2 | inactive: 1.02
3 | C[C@@H]1CN([C@@H](C)CO)C(=O)c2cccc(NS(=O)(=O)c3ccc(Cl)cc3)c2O[C@H]1CN(C)Cc1ccc(C(F)(F)F)cc1 | inactive: 1.01
4 | C[C@@H]1CN([C@H](C)CO)S(=O)(=O)c2ccc(C3=CCCC3)cc2O[C@@H]1CN(C)S(=O)(=O)c1ccc(F)cc1 | inactive: 1.01
5 | C[C@H]1CN([C@@H](C)CO)C(=O)CCCn2nncc2CO[C@H]1CN(C)S(=O)(=O)c1ccc(C#N)cc1 | inactive: 1.01
6 | COc1ccc(S(=O)(=O)N(C)C[C@H]2Oc3c(NS(=O)(=O)c4ccccc4)cccc3C(=O)N([C@@H](C)CO)C[C@@H]2C)cc1 | inactive: 0.887
7 | C[C@@H]1CCCCO[C@@H](CN(C)Cc2ccc(Cl)c(Cl)c2)[C@@H](C)CN([C@@H](C)CO)C(=O)c2cc(NC(=O)NC3CCCCC3)ccc2O1 | inactive: 1.05
8 | COc1ccc(CN(C)C[C@H]2Oc3ccc(NC(=O)C4CC4)cc3CC(=O)N([C@@H](C)CO)C[C@@H]2C)cc1 | inactive: 0.99
9 | Cc1ccc(S(=O)(=O)Nc2ccc3c(c2)C(=O)N([C@@H](C)CO)C[C@@H](C)[C@H](CN(C)Cc2ccccc2)OCCCC[C@H](C)O3)cc1 | inactive: 0.999
10 | C[C@@H]1CCCCO[C@@H](CN(C)C(=O)C2CCCCC2)[C@H](C)CN([C@H](C)CO)C(=O)c2cc(NS(=O)(=O)c3ccc(Cl)cc3)ccc2O1 | inactive: 1.01
11 | Cc1ccc(S(=O)(=O)N(C)C[C@H]2Oc3ccc(NC(=O)C4CC4)cc3CC(=O)N([C@@H](C)CO)C[C@H]2C)cc1 | inactive: 1.02
12 | Cc1noc(C)c1S(=O)(=O)N(C)C[C@@H]1OCCCC[C@@H](C)Oc2ccc(N(C)C)cc2C(=O)N([C@H](C)CO)C[C@H]1C | inactive: 0.996
13 | C[C@H]1CN([C@@H](C)CO)C(=O)c2cc(NC(=O)Nc3ccc(C(F)(F)F)cc3)ccc2O[C@@H]1CN(C)C(=O)Nc1cccc2ccccc12 | inactive: 1.04
14 | C[C@@H]1CN([C@H](C)CO)C(=O)c2cc(NC(=O)Nc3cccc4ccccc34)ccc2O[C@@H](C)CCCCO[C@@H]1CN(C)Cc1ccncc1 | inactive: 1.02
15 | Cl.NC1CCN(c2c(F)cc3c(=O)c(C(=O)O)cn(C4CC4)c3c2Cl)C1 (configuration not stated) | active: 0.0438
16 | C[C@@H]1CN([C@H](C)CO)S(=O)(=O)c2ccc(C#Cc3cccc(F)c3)cc2O[C@H]1CN(C)C(=O)CN1CCOCC1 | inactive: 1.02
17 | CCN(CC)c1ccnc([C@H]2COCCN2)n1 | inactive: 1
18 | C[C@@H]1CCCCO[C@H](CN(C)CC2CCCCC2)[C@@H](C)CN([C@H](C)CO)C(=O)c2cc(NC(=O)CCC(F)(F)F)ccc2O1 | inactive: 1
19 | O=C(C[C@H]1C[C@H]2c3cc(NS(=O)(=O)c4ccc(F)cc4)ccc3O[C@H]2[C@H](CO)O1)N1CCOCC1 | inactive: 1.03

Row | Compound | relative growth
20 | CN1C(=O)c2cc(NS(C)(=O)=O)ccc2OC[C@H]2O[C@@H](CC(=O)N3CCOCC3)CC[C@H]21 | inactive: 0.986
21 | C[C@H](CO)N1C[C@H](C)[C@@H](CN(C)CC2CCCCC2)Oc2ccc(NS(=O)(=O)c3cn(C)cn3)cc2C1=O | inactive: 1
22 | C[C@@H]1CCCCO[C@@H](CN(C)Cc2ccccc2)[C@@H](C)CN([C@@H](C)CO)C(=O)c2cc(NS(=O)(=O)c3ccc(Cl)cc3)ccc2O1 | inactive: 1.01
23 | C[C@@H]1CN([C@H](C)CO)C(=O)Cc2cc(NC(=O)Nc3cccc4ccccc34)ccc2O[C@H]1CN(C)CC1CCCCC1 | inactive: 0.9
24 | COc1ccc(S(=O)(=O)N(C)C[C@@H]2Oc3c(NC(=O)C4CC4)cccc3C(=O)N([C@@H](C)CO)C[C@@H]2C)cc1 | inactive: 0.999
25 | C[C@H](CO)N1C[C@H](C)[C@@H](CN(C)S(C)(=O)=O)OCCCC[C@H](C)Oc2ccc(N(C)C)cc2C1=O | inactive: 0.989
26 | C[C@@H]1CN([C@@H](C)CO)C(=O)c2cc(NC(=O)Nc3ccc4c(c3)OCO4)ccc2O[C@@H]1CN(C)Cc1ccc(-c2ccccc2)cc1 | inactive: 1.03
27 | COc1ccc(NC(=O)Nc2ccc3c(c2)CC(=O)N([C@H](C)CO)C[C@@H](C)[C@H](CN(C)Cc2ccc(Cl)c(Cl)c2)O3)cc1 | inactive: 1.02
28 | C[C@@H]1CCCCO[C@H](CN(C)S(=O)(=O)c2cccs2)[C@H](C)CN([C@H](C)CO)C(=O)c2cc(NC(=O)Nc3ccccc3)ccc2O1 | inactive: 1.03
29 | Cc1noc(C)c1S(=O)(=O)Nc1cccc2c1O[C@@H](CN(C)Cc1ccc(C(=O)O)cc1)[C@@H](C)CN([C@@H](C)CO)C2=O | inactive: 0.988
30 | C[C@@H]1CCCCO[C@@H](CN(C)C(=O)CCC(F)(F)F)[C@H](C)CN([C@@H](C)CO)C(=O)c2cc(NS(=O)(=O)c3ccc(Cl)cc3)ccc2O1 | inactive: 1.01
31 | O=C(O)c1c2ccccc2cc2ccccc12 | inactive: 1.07
32 | COc1cccc(S(=O)(=O)N(C)C[C@H]2Oc3cc(C#CCN(C)C)ccc3S(=O)(=O)N([C@H](C)CO)C[C@H]2C)c1 | inactive: 1.01
33 | COC(=O)C[C@H]1O[C@]2(C(=O)N(Cc3ccccc3)c3ccc(I)cc32)[C@@H](C)[C@@H]1[Si](C)(C)c1ccc(OC)cc1 | inactive: 0.987
34 | Fc1ccc(-c2nc3c4ccccc4c4ccccc4c3[nH]2)cc1 | inactive: 0.997
35 | C[C@@H]1CN([C@H](C)CO)C(=O)Cc2cc(NS(C)(=O)=O)ccc2O[C@@H]1CN(C)Cc1ccc(C(F)(F)F)cc1 | inactive: 1.02
36 | C[C@H](CO)N1C[C@H](C)[C@@H](CN(C)Cc2cccc(C(F)(F)F)c2)OCc2ccccc2-c2c(n(C)c3ccccc23)C1=O | inactive: 0.998
37 | COc1ccc2c3c(n(c2c1)C)[C@@H](CO)N(C[C@]13CCN(CC1)C(=O)Nc1cccc(c1)F)C(=O)C1CCCCC1 | inactive: 1.02
